{"source": "the supplement of paper PMC11417369", "note": "The other results are listed elsewhere or left out."}
{"test_system": "PF3D7_0420300 AP2 domain 1 (GST-tagged)", "experiment": "gcPBM binding intensity (ln(normalized median fluorescence intensity)); higher = stronger DNA binding", "how_it_was_run": "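Plasmodium falciparum DNA-binding domains carrying a GST tag were expressed in E. coli and applied for 1 h, at about 25 μg on average, to an Agilent 4 × 180k array. The array held primer-extended double-stranded 36-bp intergenic genomic probes together with negative controls, and binding took place in 1× PBS with 1% milk, 0.2 mg/ml BSA, 0.5% salmon testes DNA and 0.03% Triton X-100. An Alexa488 anti-GST antibody detected bound protein, and the array was scanned at 488 nm. Binding intensity is taken as the highest Masliner-normalised natural-log median intensity across replicate spots of either probe orientation.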"}
{"sequence": "TTAGGCAAGGCGGGGGGTACGTTTTTATATAATTAT [XGTACX_site8029]", "gcPBM binding intensity (ln)": 10.6}
{"sequence": "TTAGATTTATAAGTGTGTACGTAAAATACTTAATAA [XGTACX_site8246]", "gcPBM binding intensity (ln)": 9.09}
{"sequence": "TTTATGGAATAATCACGTACACACAAGAAAAAAAAA [XGTACX_site985]", "gcPBM binding intensity (ln)": 9.83}
{"sequence": "TGTGTGTGCTTATTTTGTACATATTAGGTAAATATT [XGTACX_site6329]", "gcPBM binding intensity (ln)": 9.67}
{"sequence": "TTTTTATCTAATCTAATATTATATTATACATATAAT [XGTACX_negctrl_site275]", "gcPBM binding intensity (ln)": 9.12}
{"sequence": "ATATCTATAATAAATACACACATTTATATAGATAAA [CACACA_site7518]", "gcPBM binding intensity (ln)": 9.34}
{"sequence": "AACAGCATTATTTCTTATTTTTTTTTTGATATATTT [GTGCAC_negctrl_site114]", "gcPBM binding intensity (ln)": 9.47}
{"sequence": "GTTATATTATTCATACGTACCTATATTTCTATTAAC [XGTACX_site3447]", "gcPBM binding intensity (ln)": 9.59}
{"sequence": "ATGTGTTGGGAAAAGGCATGCACTTTTTTTTTTTTT [TGCATGCA_site707]", "gcPBM binding intensity (ln)": 9.36}
{"sequence": "TTTTCCTTATATTATGCATGCAGGGTTTGACATTAT [TGCATGCA_site826]", "gcPBM binding intensity (ln)": 9.25}
{"sequence": "TGATAACCTCACAAATGTACGTACGGGGCTAGCATT [XGTACX_site4157]", "gcPBM binding intensity (ln)": 9.28}
{"sequence": "AAAAAAAAAAAATAGACACACATATTATATATATAT [CACACA_site1419]", "gcPBM binding intensity (ln)": 9.54}
{"sequence": "TATTATTCTATACATTGTACATATTTTATAGTATGT [XGTACX_site73]", "gcPBM binding intensity (ln)": 9.3}
{"sequence": "TTTAAAACCTTACATACACACAAATATGTAAATATA [CACACA_site6464]", "gcPBM binding intensity (ln)": 9.43}
{"sequence": "TTCATATAACCTTATAGTACATAATTAAAAATATAA [XGTACX_site6328]", "gcPBM binding intensity (ln)": 8.94}
{"sequence": "CACGCATATATACATACATGCATATATACATCCATG [TGCATGCA_site667]", "gcPBM binding intensity (ln)": 9.27}
{"sequence": "AAAAAAAAAAAAAAAACACACATATAGGTATAAATA [CACACA_site7528]", "gcPBM binding intensity (ln)": 9.55}
{"sequence": "CACAGACACGGACACACACACACACCCACATATATA [CACACA_site4355]", "gcPBM binding intensity (ln)": 10.3}
{"sequence": "ATATATTTTAAATATATTATTATTGCATTGTGAAAA [TGCATGCA_negctrl_site106]", "gcPBM binding intensity (ln)": 8.94}
{"sequence": "TCTTAAAAAATAGGGACACGTAAATATAATATATAA [CACACA_negctrl_site554]", "gcPBM binding intensity (ln)": 9.4}
{"sequence": "AAAAAAAAAAAAAAAACACACATATATATATATATA [CACACA_site2436]", "gcPBM binding intensity (ln)": 9.59}
{"sequence": "TATATATATATATATAGTACATATTAATTAATTTAT [XGTACX_site8198]", "gcPBM binding intensity (ln)": 9.1}
{"sequence": "ACACATACTAAAATGTTGTGAAATATGATAATGTGA [CACACA_negctrl_site851]", "gcPBM binding intensity (ln)": 9.31}
{"sequence": "TTATAATAATAGAACTTTATGTAGAAAAAAGGAAAA [XGTACX_negctrl_site116]", "gcPBM binding intensity (ln)": 9.17}
{"sequence": "TTAAATAAGTAATTATGTACATATAATATTCTTTAT [XGTACX_site5280]", "gcPBM binding intensity (ln)": 9.06}
{"sequence": "TATAGGAATATATGGTGTACCTATAAATCTGACATA [XGTACX_site8111]", "gcPBM binding intensity (ln)": 9.17}
{"sequence": "ATTTATATATTTATACGTACTTATATATTGTTACAT [XGTACX_site6254]", "gcPBM binding intensity (ln)": 9.7}
{"sequence": "AAAAATAAAAATTGCACACTAAAAAATTACGCACGA [CACACA_site3418]", "gcPBM binding intensity (ln)": 9.59}
{"sequence": "TAGAAAATATAAAAATGTACGTAAATAAAATGTGCA [XGTACX_site3459]", "gcPBM binding intensity (ln)": 9.56}
{"sequence": "TCTTAAGGAAAAGAGTGTACAGAAATTTTTATTAAC [XGTACX_site6139]", "gcPBM binding intensity (ln)": 9.05}
{"sequence": "AATTATATTACAAACTGTACATATATAATTTGTCCA [XGTACX_site6009]", "gcPBM binding intensity (ln)": 9.1}
{"sequence": "ATCCGAGTGTGAAATACACACATGATAATGTGAATG [CACACA_site919]", "gcPBM binding intensity (ln)": 9.4}
{"sequence": "TATAATGAGGATAATAGTACATATGAATACAAAAAA [XGTACX_site3665]", "gcPBM binding intensity (ln)": 9.43}
{"sequence": "TACACAAGCAGACACACACACATATAGATTTATATA [CACACA_site6715]", "gcPBM binding intensity (ln)": 9.9}
{"sequence": "GCCATAAAAATATATACACACATAAAAAAAAATTAT [CACACA_site1176]", "gcPBM binding intensity (ln)": 9.56}
{"sequence": "TTAATATTGTATTTCACACATAATTTAATATACTCA [CACACA_site5678]", "gcPBM binding intensity (ln)": 9.19}
{"sequence": "TATATATATAATATTACACACATATATTTATATTTT [CACACA_site3460]", "gcPBM binding intensity (ln)": 9.48}
{"sequence": "TATGGTATATACAACACACACACATATGTATAAATA [CACACA_site6562]", "gcPBM binding intensity (ln)": 9.91}
{"sequence": "ATTTATACATGCTAATGTACTTATTTCACCTATATC [XGTACX_site3120]", "gcPBM binding intensity (ln)": 9.26}
{"sequence": "CAAGTATTAATTATGTGTACATATATATATATATAT [XGTACX_site5311]", "gcPBM binding intensity (ln)": 9.45}
{"sequence": "TATGTATTTATCCACTTACATTTTTACTTTTCCATT [CACACA_negctrl_site1141]", "gcPBM binding intensity (ln)": 9.51}
{"sequence": "ACATGAAATGTTTAAAGTACATATATAAATTTTTTT [XGTACX_site4519]", "gcPBM binding intensity (ln)": 9.13}
{"sequence": "ATATATAGATAATCAAGTACATAACAAGATATAAGA [XGTACX_site2186]", "gcPBM binding intensity (ln)": 9.55}
{"sequence": "TACTGATCTTTCTAGGTGCGCTGCTACCATTATCGT [GTGCAC_site9538]", "gcPBM binding intensity (ln)": 9.06}
{"sequence": "AAATGTGAAGTGAATACACACCTAATAAATATAACA [CACACA_site5727]", "gcPBM binding intensity (ln)": 9.39}
{"sequence": "TATATTTAATTATTATGTACTTATAATTTTTGAAAG [XGTACX_site8548]", "gcPBM binding intensity (ln)": 8.95}
{"sequence": "CTTTCCTATTTGACACGTACGAAATTTTACATAAAA [XGTACX_site6689]", "gcPBM binding intensity (ln)": 9.15}
{"sequence": "AAATATATATACACATATATATATATATATATATAT [CACACA_negctrl_site1742]", "gcPBM binding intensity (ln)": 9.14}
{"sequence": "TATGAAATATCGTGCACACACGAATAATATAAGAAT [CACACA_site4842]", "gcPBM binding intensity (ln)": 9.56}
{"sequence": "AAAATAAAAAATATAACACACAATAAATATTTATAT [CACACA_site6986]", "gcPBM binding intensity (ln)": 9.77}
{"sequence": "TATTCCTAATTGACAACACACACAACAAAAAAGGGA [CACACA_site8350]", "gcPBM binding intensity (ln)": 9.94}
{"sequence": "TATAAATAGAGACACACACACATATAAATAAATATT [CACACA_site7854]", "gcPBM binding intensity (ln)": 10.1}
{"sequence": "TATATTTCTTCTATAACATGCAGATATATGAAAATA [TGCATGCA_site971]", "gcPBM binding intensity (ln)": 8.91}
{"sequence": "ATATATTTTTTGAATACACACATATTATCTGTAATA [CACACA_site4826]", "gcPBM binding intensity (ln)": 9.49}
{"sequence": "CTATAATATGGTATTACACACTGTTATAAGTATGGC [CACACA_site7068]", "gcPBM binding intensity (ln)": 9.48}
{"sequence": "AGAATTATTTTATGTTTGCACTTTTTTTTTCTATAA [GTGCAC_site9876]", "gcPBM binding intensity (ln)": 9.51}
